The target in assay [1] is pBTM-APC–ARM (residues 308–789), two-hybrid bait (human) (UniProt P25054). Description: two-hybrid; L40 yeast, APC–ARM in pBTM116 (bait), Amer1 sites in pVP16 (prey); β-galactosidase activity and growth on –His; 7 mM (A4) or 10 mM (A1, A2, A3) 3-aminotriazole.
The target of assay [2] is pBTM-APC–ARM (residues 308–789) R549E (human) (UniProt P25054). The description is as above.
The target in assay [3] is pBTM-APC–ARM (residues 308–789) K516E (human) (UniProt P25054). The assay is described as above.
Assay [4] addresses FL APC (human) (UniProt P25054). In words: co-IP; HEK293T cells transiently transfected; immunoprecipitation with anti-GFP or anti-FLAG M2 beads, western blot. For orientation: In western blotting, separated proteins are transferred to a membrane and probed.

The chains behind the UniProt entries cited, without tags or fusion partners. Where a name states a change or a piece, a line headed by the entry shows the natural chain unless it says otherwise. A line that says so, or that is headed by a name, gives the form on record, which may keep a tag or linker. Residues count along the entry.
UniProt P25054: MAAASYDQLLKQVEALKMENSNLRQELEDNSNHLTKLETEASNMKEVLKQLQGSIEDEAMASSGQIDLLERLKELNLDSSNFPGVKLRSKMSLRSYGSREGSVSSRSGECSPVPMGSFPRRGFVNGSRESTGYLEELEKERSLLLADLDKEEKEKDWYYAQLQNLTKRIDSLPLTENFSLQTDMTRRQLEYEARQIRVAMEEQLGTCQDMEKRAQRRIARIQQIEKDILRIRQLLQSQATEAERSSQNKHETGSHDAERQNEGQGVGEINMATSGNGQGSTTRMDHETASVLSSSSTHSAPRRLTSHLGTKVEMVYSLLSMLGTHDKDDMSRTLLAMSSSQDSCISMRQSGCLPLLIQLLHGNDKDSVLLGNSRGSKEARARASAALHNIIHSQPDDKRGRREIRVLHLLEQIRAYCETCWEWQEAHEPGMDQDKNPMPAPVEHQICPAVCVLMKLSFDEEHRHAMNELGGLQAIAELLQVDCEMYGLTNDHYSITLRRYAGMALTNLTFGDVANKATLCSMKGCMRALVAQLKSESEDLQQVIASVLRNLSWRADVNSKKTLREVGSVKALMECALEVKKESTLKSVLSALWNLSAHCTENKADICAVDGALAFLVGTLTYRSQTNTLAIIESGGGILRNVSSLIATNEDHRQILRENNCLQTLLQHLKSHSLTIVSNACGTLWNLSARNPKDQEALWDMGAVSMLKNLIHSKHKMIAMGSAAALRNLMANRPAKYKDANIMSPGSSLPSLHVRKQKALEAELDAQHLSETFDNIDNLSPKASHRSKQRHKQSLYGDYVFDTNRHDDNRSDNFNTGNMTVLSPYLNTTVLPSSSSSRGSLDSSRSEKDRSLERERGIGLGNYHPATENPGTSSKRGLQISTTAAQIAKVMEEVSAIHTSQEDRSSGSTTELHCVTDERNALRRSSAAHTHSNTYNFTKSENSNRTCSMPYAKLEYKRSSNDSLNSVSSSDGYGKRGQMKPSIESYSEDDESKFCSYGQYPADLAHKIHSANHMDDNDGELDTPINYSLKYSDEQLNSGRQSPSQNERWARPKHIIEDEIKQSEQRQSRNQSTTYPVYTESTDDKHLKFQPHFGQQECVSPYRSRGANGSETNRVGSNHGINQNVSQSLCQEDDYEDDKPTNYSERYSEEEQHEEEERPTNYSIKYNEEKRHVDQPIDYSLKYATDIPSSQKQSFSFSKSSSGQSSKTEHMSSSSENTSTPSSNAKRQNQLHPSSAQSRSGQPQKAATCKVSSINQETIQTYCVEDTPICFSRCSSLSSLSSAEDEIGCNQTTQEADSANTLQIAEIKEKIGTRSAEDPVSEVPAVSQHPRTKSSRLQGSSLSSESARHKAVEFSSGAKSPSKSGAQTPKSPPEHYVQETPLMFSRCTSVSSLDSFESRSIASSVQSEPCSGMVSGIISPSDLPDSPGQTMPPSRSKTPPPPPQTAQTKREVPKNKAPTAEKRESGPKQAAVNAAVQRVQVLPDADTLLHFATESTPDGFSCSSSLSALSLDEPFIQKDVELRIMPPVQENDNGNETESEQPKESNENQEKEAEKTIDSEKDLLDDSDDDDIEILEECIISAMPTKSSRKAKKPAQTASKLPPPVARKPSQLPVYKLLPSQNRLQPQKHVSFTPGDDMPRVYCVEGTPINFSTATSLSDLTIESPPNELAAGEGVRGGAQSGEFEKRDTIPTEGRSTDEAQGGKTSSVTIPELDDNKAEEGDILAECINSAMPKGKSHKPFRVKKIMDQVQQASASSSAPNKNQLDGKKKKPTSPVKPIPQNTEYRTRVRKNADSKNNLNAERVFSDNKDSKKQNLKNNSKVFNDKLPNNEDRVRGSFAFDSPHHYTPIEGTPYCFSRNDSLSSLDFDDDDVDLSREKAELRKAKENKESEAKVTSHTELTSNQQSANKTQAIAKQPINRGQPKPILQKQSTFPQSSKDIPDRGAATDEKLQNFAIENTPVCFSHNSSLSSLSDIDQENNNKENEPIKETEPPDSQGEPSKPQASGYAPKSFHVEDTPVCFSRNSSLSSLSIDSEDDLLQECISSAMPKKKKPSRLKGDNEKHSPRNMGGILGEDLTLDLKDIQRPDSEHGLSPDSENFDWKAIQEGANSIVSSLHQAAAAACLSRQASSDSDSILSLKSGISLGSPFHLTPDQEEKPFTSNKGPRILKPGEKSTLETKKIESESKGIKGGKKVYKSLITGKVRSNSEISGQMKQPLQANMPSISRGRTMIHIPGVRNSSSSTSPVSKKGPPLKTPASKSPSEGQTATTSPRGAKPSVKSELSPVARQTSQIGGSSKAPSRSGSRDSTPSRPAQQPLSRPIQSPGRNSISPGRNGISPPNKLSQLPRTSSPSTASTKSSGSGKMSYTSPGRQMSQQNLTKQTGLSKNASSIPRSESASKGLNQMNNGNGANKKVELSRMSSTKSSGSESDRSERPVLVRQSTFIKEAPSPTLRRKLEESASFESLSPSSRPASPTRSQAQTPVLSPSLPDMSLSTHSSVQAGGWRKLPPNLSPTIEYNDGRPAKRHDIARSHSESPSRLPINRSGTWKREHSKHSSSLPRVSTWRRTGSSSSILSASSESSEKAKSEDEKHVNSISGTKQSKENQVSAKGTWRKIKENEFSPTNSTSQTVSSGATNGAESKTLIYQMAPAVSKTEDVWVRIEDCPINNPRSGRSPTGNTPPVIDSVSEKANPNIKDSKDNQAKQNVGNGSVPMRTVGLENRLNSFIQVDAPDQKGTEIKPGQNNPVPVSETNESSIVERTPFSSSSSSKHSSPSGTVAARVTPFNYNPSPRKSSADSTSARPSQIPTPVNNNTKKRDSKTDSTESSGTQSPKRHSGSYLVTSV
pBTM-APC–ARM (residues 308–789) R549E (P25054, form named): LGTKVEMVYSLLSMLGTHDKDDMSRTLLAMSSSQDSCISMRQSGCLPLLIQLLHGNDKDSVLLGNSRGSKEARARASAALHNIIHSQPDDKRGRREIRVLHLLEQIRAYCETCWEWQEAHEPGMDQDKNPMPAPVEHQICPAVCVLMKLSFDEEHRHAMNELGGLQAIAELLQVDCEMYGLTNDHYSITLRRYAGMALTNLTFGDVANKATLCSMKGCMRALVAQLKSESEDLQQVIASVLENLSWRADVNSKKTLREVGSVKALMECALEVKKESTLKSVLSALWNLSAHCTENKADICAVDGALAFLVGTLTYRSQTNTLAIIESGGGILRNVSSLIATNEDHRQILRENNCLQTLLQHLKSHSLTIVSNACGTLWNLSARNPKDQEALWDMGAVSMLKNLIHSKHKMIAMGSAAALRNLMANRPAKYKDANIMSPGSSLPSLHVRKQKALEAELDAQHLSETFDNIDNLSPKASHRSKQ
pBTM-APC–ARM (residues 308–789) K516E (P25054, form named): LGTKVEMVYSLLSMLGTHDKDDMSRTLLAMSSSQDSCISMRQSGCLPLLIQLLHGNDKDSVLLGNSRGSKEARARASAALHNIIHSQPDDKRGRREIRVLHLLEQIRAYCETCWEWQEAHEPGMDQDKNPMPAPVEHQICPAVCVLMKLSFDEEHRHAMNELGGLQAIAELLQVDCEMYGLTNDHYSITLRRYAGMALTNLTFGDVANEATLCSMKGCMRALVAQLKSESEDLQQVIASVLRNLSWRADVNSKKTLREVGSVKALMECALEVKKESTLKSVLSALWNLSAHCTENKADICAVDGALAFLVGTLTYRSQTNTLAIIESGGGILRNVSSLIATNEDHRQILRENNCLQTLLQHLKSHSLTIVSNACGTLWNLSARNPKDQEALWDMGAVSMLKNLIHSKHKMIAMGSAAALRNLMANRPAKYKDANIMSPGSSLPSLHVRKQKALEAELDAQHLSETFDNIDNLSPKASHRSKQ

Results are given in words; binding and its absence hold for the method and conditions named. For part of these data: Binding seen in cells or lysates may run through a third protein. Some binding calls cover weakened binding; strength is not graded here. For part of these data: Tags and fused reporters may be left off the sequences shown.

B1: Amer1-A4 (human, residues 337–455), two-hybrid prey (domain or fragment, UniProt Q5JTC6 337-455)
chain: MDSMTDSMASGGQRANRDGTKRSSCLVTYQGGGEEMALPDDDDEEEEEEEEVELEEEEEEVKEEEEDDDLEYLWETAQMYPRPNMNLGYHPTTSPGHHGYMLLDPVRSYPGLAPGELLT
B1: the values for the binding entry in assay [1], in assay [2] and in assay [3] were “binds”, “no binding” and “no binding”, respectively.

B2: hAmer1-A4 (residues 337–455) E370K, two-hybrid prey (domain or fragment, UniProt Q5JTC6 337-455)
chain: MDSMTDSMASGGQRANRDGTKRSSCLVTYQGGGKEMALPDDDDEEEEEEEEVELEEEEEEVKEEEEDDDLEYLWETAQMYPRPNMNLGYHPTTSPGHHGYMLLDPVRSYPGLAPGELLT
In the case of B2, the binding entry in assay [1] is “no binding”.

B3: Flag-tagged Amer1 (residues 2–700) (domain or fragment, UniProt Q5JTC6 2-700)
chain: ETQKDEAAQAKGAAASGSTREQTAEKGAKNKAAEATEGPTSEPSSSGPGRLKKTAMKLFGGKKGICTLPSFFGGGRSKGSGKGSSKKGLSKSKTHDGLSEAAHGPEDVVSEGTGFSLPLPELPCQFPSSQSAHGALETGSRCKTSVAGATEKAVAEKFPSMPKPKKGLKGFFSSIRRHRKSKVTGAEQSEPGAKGPERVRARPHEHVSSAPQVPCFEETFQAPRKENANPQDAPGPKVSPTPEPSPPATEKMACKDPEKPMEACASAHVQPKPAPEASSLEEPHSPETGEKVVAGEVNPPNGPVGDPLSLLFGDVTSLKSFDSLTGCGDIIAEQDMDSMTDSMASGGQRANRDGTKRSSCLVTYQGGGEEMALPDDDDEEEEEEEEVELEEEEEEVKEEEEDDDLEYLWETAQMYPRPNMNLGYHPTTSPGHHGYMLLDPVRSYPGLAPGELLTPQSDQQESAPNSDEGYYDSTTPGFEDDSGEALGLVRRDCLPRDSYSGDALYEFYEPDDSLENSPPGDDCLYDLHGRSSEMFDPFLNFEPFLSSRPPGAMETEEERLVTIQKQLLYWELRREQLEAQEARAREAHAREAHAREAYTREAYGREAYAREAHTWEAHGREARTREAQAREVRCRETQVRETQARQEKPVLEYQMRPLGPSVMGLAAGVSGTSQISHRGITSAFPTTASSEPDWRDFRP
With B3, the binding result in assay [4] is recorded as “binds”.

B4: Flag-tagged Amer1 (2–700) D330K/D503K double mutant (domain or fragment, UniProt Q5JTC6 2-700)
chain: ETQKDEAAQAKGAAASGSTREQTAEKGAKNKAAEATEGPTSEPSSSGPGRLKKTAMKLFGGKKGICTLPSFFGGGRSKGSGKGSSKKGLSKSKTHDGLSEAAHGPEDVVSEGTGFSLPLPELPCQFPSSQSAHGALETGSRCKTSVAGATEKAVAEKFPSMPKPKKGLKGFFSSIRRHRKSKVTGAEQSEPGAKGPERVRARPHEHVSSAPQVPCFEETFQAPRKENANPQDAPGPKVSPTPEPSPPATEKMACKDPEKPMEACASAHVQPKPAPEASSLEEPHSPETGEKVVAGEVNPPNGPVGDPLSLLFGDVTSLKSFDSLTGCGKIIAEQDMDSMTDSMASGGQRANRDGTKRSSCLVTYQGGGEEMALPDDDDEEEEEEEEVELEEEEEEVKEEEEDDDLEYLWETAQMYPRPNMNLGYHPTTSPGHHGYMLLDPVRSYPGLAPGELLTPQSDQQESAPNSDEGYYDSTTPGFEDDSGEALGLVRRDCLPRDSYSGKALYEFYEPDDSLENSPPGDDCLYDLHGRSSEMFDPFLNFEPFLSSRPPGAMETEEERLVTIQKQLLYWELRREQLEAQEARAREAHAREAHAREAYTREAYGREAYAREAHTWEAHGREARTREAQAREVRCRETQVRETQARQEKPVLEYQMRPLGPSVMGLAAGVSGTSQISHRGITSAFPTTASSEPDWRDFRP
As for B4, in assay [4], the binding result is reported as “binds”.

B5: Flag-tagged Amer1 (2-700, D330K/D503K/E370K) triple mutant (domain or fragment, UniProt Q5JTC6 2-700)
chain: ETQKDEAAQAKGAAASGSTREQTAEKGAKNKAAEATEGPTSEPSSSGPGRLKKTAMKLFGGKKGICTLPSFFGGGRSKGSGKGSSKKGLSKSKTHDGLSEAAHGPEDVVSEGTGFSLPLPELPCQFPSSQSAHGALETGSRCKTSVAGATEKAVAEKFPSMPKPKKGLKGFFSSIRRHRKSKVTGAEQSEPGAKGPERVRARPHEHVSSAPQVPCFEETFQAPRKENANPQDAPGPKVSPTPEPSPPATEKMACKDPEKPMEACASAHVQPKPAPEASSLEEPHSPETGEKVVAGEVNPPNGPVGDPLSLLFGDVTSLKSFDSLTGCGKIIAEQDMDSMTDSMASGGQRANRDGTKRSSCLVTYQGGGKEMALPDDDDEEEEEEEEVELEEEEEEVKEEEEDDDLEYLWETAQMYPRPNMNLGYHPTTSPGHHGYMLLDPVRSYPGLAPGELLTPQSDQQESAPNSDEGYYDSTTPGFEDDSGEALGLVRRDCLPRDSYSGKALYEFYEPDDSLENSPPGDDCLYDLHGRSSEMFDPFLNFEPFLSSRPPGAMETEEERLVTIQKQLLYWELRREQLEAQEARAREAHAREAHAREAYTREAYGREAYAREAHTWEAHGREARTREAQAREVRCRETQVRETQARQEKPVLEYQMRPLGPSVMGLAAGVSGTSQISHRGITSAFPTTASSEPDWRDFRP
Consider B5, for which the binding result in assay [4] is “no binding”.

B6: Amer1-A2 (murine, residues 388–551), two-hybrid prey (domain or fragment, UniProt Q7TS75 388-551)
chain: EEEEEEEEEEEEEEEEEEEEEELLEDEEEVKDGEENDDLEYLWASAQIYPRFNMNLGYHTAISPSHQGYMLLDPVQSYPNLGLGELLTPQSDQQESAPNSDEGYYDSTTPGFEDDSGEALGLAHRDCLPRDSYSGDALYEFYEPDDSLEHSPPGDDCLYDLRGR
With B6, the binding result in assay [1] is reported as “binds”; in assay [2], “no binding”; in assay [3], “no binding”.

B7: Amer1-A1 (human, residues 280–369), two-hybrid prey (domain or fragment, UniProt Q5JTC6 280-369)
chain: SLEEPHSPETGEKVVAGEVNPPNGPVGDPLSLLFGDVTSLKSFDSLTGCGDIIAEQDMDSMTDSMASGGQRANRDGTKRSSCLVTYQGGG
In the case of B7, the binding entry in assay [1] was “binds”.

B8: hAmer1-A1 (residues 280–369) D330A, two-hybrid prey (domain or fragment, UniProt Q5JTC6 280-369)
chain: SLEEPHSPETGEKVVAGEVNPPNGPVGDPLSLLFGDVTSLKSFDSLTGCGAIIAEQDMDSMTDSMASGGQRANRDGTKRSSCLVTYQGGG
As to B8, the binding entry in assay [1] is on record as “no binding”.

B9: hAmer1-A1 (residues 280–369) I332D, two-hybrid prey (domain or fragment, UniProt Q5JTC6 280-369)
chain: SLEEPHSPETGEKVVAGEVNPPNGPVGDPLSLLFGDVTSLKSFDSLTGCGDIDAEQDMDSMTDSMASGGQRANRDGTKRSSCLVTYQGGG
Regarding B9, the binding result in assay [1] was “no binding”.

B10: hAmer1-A1 (residues 280–369) D330K, two-hybrid prey (domain or fragment, UniProt Q5JTC6 280-369)
chain: SLEEPHSPETGEKVVAGEVNPPNGPVGDPLSLLFGDVTSLKSFDSLTGCGKIIAEQDMDSMTDSMASGGQRANRDGTKRSSCLVTYQGGG
In the case of B10, the binding entry in assay [1] is “no binding”.

B11: hAmer1-A1 (residues 280–369) T326A, two-hybrid prey (domain or fragment, UniProt Q5JTC6 280-369)
chain: SLEEPHSPETGEKVVAGEVNPPNGPVGDPLSLLFGDVTSLKSFDSLAGCGDIIAEQDMDSMTDSMASGGQRANRDGTKRSSCLVTYQGGG
As to B11, the binding result in assay [1] is “no binding”.

B12: hAmer1-A1 (residues 280–369) T326R, two-hybrid prey (domain or fragment, UniProt Q5JTC6 280-369)
chain: SLEEPHSPETGEKVVAGEVNPPNGPVGDPLSLLFGDVTSLKSFDSLRGCGDIIAEQDMDSMTDSMASGGQRANRDGTKRSSCLVTYQGGG
In the case of B12, in assay [1], the binding entry is “no binding”.

B13: hAmer1-A4 (residues 337–455) with residues 370–373 deleted, two-hybrid prey (domain or fragment, UniProt Q5JTC6)
chain: MDSMTDSMASGGQRANRDGTKRSSCLVTYQGGGLPDDDDEEEEEEEEVELEEEEEEVKEEEEDDDLEYLWETAQMYPRPNMNLGYHPTTSPGHHGYMLLDPVRSYPGLAPGELLT
As for B13, in assay [1], the binding entry is on record as “no binding”.

B14: GST-Amer1 (380–531), full A2 (domain or fragment, human, UniProt Q5JTC6 380-531, looked up)
chain: EEEEEEEEVELEEEEEEVKEEEEDDDLEYLWETAQMYPRPNMNLGYHPTTSPGHHGYMLLDPVRSYPGLAPGELLTPQSDQQESAPNSDEGYYDSTTPGFEDDSGEALGLVRRDCLPRDSYSGDALYEFYEPDDSLENSPPGDDCLYDLHGR
notes: the methods print full A2: 400–531; also called full Amer1-A2; not shown: GST, N-terminal, kept
As to B14, in assay [1], the binding result is “binds”.

B15: Amer1-A1 (murine, residues 279–367), two-hybrid prey (domain or fragment, UniProt Q7TS75 279-367)
chain: SLEEPHTSETEGKVVAGEVNPPNGPVGDQLSLLFGDVTSLKSFDSLTGCGDIIAEQDMDSMTDSMASGGQRANRDGTKRSSCLVTYQGG
As to B15, the binding entry in assay [1] is on record as “binds”; in assay [2], “no binding”; in assay [3], “no binding”.

The record behind these values is publication PMC4860839, “Structures of the APC–ARM domain in complexes with discrete Amer1/WTX fragments reveal that it uses a consensus mode to recognize its binding partners” (Cell Discovery, 2015).
